# Assay results published in ChEMBL document CHEMBL4888484, “Replenishing the malaria drug discovery pipeline: Screening and hit evaluation of the MMV Hit Generation Library 1 (HGL1) against asexual blood stage Plasmodium falciparum ,using a nano luciferase reporter read-out” (2022).
# About 540 (0.36%) of roughly 150,000 compounds showed an effect of 50% or more. Some of the results follow.
# Tested on: Plasmodium falciparum
# Test: Primary screen in NF54 nanoGlo assay, in single point, at 2uM, 72h; a lower Z score goes with more inhibition
# Assay type: functional, Erythrocyte
# Details: timepoint 72 hour
SMILES,% Inhibition,Z score
O=C1C2N=NN(Cc3nc(-c4ccccc4)no3)C2C(=O)N1c1cccc(Cl)c1 (stereo not given),-2%,0.23
OC1CCC1NCc1cc(F)cc(F)c1 (stereo not given),-3%,0.32
Cc1nc(NC(=O)C[C@H]2CCS(=O)(=O)C2)sc1C,-11%,1.51
CCOC1CC(Nc2ccc3nnnn3n2)C12CCCCC2 (stereo not given),-15%,2.01
CCC1CCCCC1OCC(=O)Nc1cc(N(C)C)ncn1 (stereo not given),-14%,2.25
CC(=O)N1CCN(C(=O)c2cccc(Cl)c2Cl)[C@H]2CS(=O)(=O)C[C@H]21,-3%,0.29
Cc1[nH]nc(-c2ccccc2)c1NC(=O)COc1ccc(Cl)cc1,-13%,2.44
Cc1cccc(C(=O)N2CCCCCCN(C)C(=O)[C@@H]3CCC[C@@H]32)c1,-18%,2.35
CCCN(CCC)/C(=N/S(=O)(=O)c1ccccc1)C(F)(F)F,-8%,0.99
COC(=O)c1cc(CNc2cccnc2)cn1C,-1%,0.28
COc1ccc(NC(=O)Cn2nc3c(N4CCC[C@H](C)C4)nccn3c2=O)c(OC)c1,-13%,1.46
COc1ccc([C@H]2CN(C(=O)c3ccccc3-c3nnn[nH]3)C[C@@H]2N)cc1,-1%,0.14
CC(C)OCCNC(=O)c1cc(Cl)cc(F)c1Br,-2%,0.42
Cc1cc(NCCc2nccn2C)ncn1,35%,-5
Cn1ccc(C(=O)NC2CCN(Cc3ccccc3)CC2)cc1=O,-4%,0.82
NC(=O)[C@H]1CCCN(CCNC(=O)c2cc(-c3ccc(O)cc3)n[nH]2)C1,-8%,0.86
O=C1CN(CCCO)[C@@H](Cc2ccccc2)CN1c1cccc(-c2ccccc2)c1,-6%,0.54
Cc1nsc(N2CCS(=O)(=O)c3ccccc3C2)n1,-7%,1.18
CCc1cnc(C)nc1N1CCC[C@@](CO)(CC2CC2)C1,-3%,0.48
COc1cc(=O)n(C)cc1C(=O)N[C@H](c1cccnc1)C1CCOCC1,-11%,2
O=C(Cn1ccccc1=O)N[C@@H]1[C@H]2CCO[C@H]2[C@H]1Cc1ccccc1,-5%,0.83
CCNC(=O)N[C@H](c1ccccc1OC(F)F)C(F)(F)F,10%,-1.18
COc1cccc([C@H](C)n2ccnc2-c2[nH]cnc2C)c1,0%,-0.06
CC1CCN(Cc2ccc(C(=O)NCCc3n[nH]c(N)n3)o2)CC1,-9%,1.72
Cn1nc(NC(=O)Cc2ccco2)cc1C(F)(F)F,-7%,0.76
N#CC1(c2ccccn2)CCN(C2Cc3ccccc3C2O)CC1 (stereo not given),-8%,1.45
COC(=O)Cc1nnc(NC(=O)C(C)C)s1,-10%,1.32
COc1ccc(CN2CC(CN(Cc3ccc(F)cc3)C(C)=O)C(c3ccc(OC)cc3)C2)cc1 (stereo not given),-10%,1.03

SMILES,% Inhibition,Z score
COc1ccccc1OCCN1C[C@@H](C(=O)Nc2cnn(C)c2)CC1=O,4%,-0.62
Clc1ccccc1-c1c[nH]c([C@@H]2CCCN2)n1,39%,-5.22
Cn1cc(C(N)=O)c(NCC2CCC2)n1,-6%,0.61
COc1ccc(Cl)c2c1CCC[C@@H]2NCc1ncnn1C(C)(C)C,6%,-0.72
CC[C@H](NC(=O)c1nnc2n1CCCC2)c1cn2cccnc2n1,-5%,0.78
Nc1c(C(=O)NCCOCC(F)(F)F)ccnc1C(F)(F)F,1%,-0.21
Cc1ccc(-c2cn(C3CCN(C(=O)Nc4ccsc4)CC3)nn2)cc1,-9%,1.31
O=C(C[C@@H]1C=CCC1)NCCc1ccc(F)cc1,2%,-0.3
O=C1CN(c2ccc(NC(=O)c3ccc(-c4ccccc4F)o3)cn2)CCN1,-14%,2.75
Nc1ncc(C(=O)NC2(CO)CCCCCC2)s1,-2%,0.44
CCCCNC(=O)N[C@H](c1ccc(C)c(F)c1)C(Cl)(Cl)Cl,-7%,0.87
Cc1nc(C)n(C[C@H](C)NC(=O)c2cccs2)n1,-3%,0.45
N#Cc1cccc(C(=O)N2CCC3(CCC(=O)N(Cc4cccnc4)C3)CC2)c1,-7%,0.95
Cc1cccc(N/C(=N/N)c2ccc3ccccc3n2)c1,-4%,0.56
C[C@@H]1CN(C[C@@H]2CN(c3ncccc3F)C[C@@H]2CO)C[C@H](C)O1,13%,-1.65
CC(c1nccs1)N1CCN(C(=O)C(N)C2CCC2)CC1 (stereo not given),-10%,1.97
COc1ccc(-c2ccc(=O)n(-c3c(C)noc3C)n2)cc1S(=O)(=O)NCc1ccccn1,17%,-2.03
O=C(NC1CCN(Cc2ccccc2)CC1)[C@H]1CCC(=O)N(C2CCCCCC2)C1,-6%,0.7
CC(C)Cc1nc(-c2ccccc2C#N)n(-c2ccccn2)n1,-4%,0.59
CCc1ncnc(N2CC[C@H](C(N)=O)C2)c1F,-9%,1.55
O=C(NCCc1csc(N2CCCC2)n1)N[C@H]1CCO[C@@H]1c1cccnc1,0%,0.03
CCNC(=O)N1CCN(C2CC(C)OC(C)C2)CC1 (stereo not given),33%,-3.76
O=C(CC1CCCCC1)NCc1ccccc1CN1CCOCC1,-8%,1.6
Cc1nc2n(n1)C[C@@H](c1nc(Cc3conc3C)no1)CC2,-4%,0.73
CCNC(=O)N1CC[C@H](NCc2cc(F)ccc2Br)C1,-10%,0.9
CO[C@H]1[C@@H]2CC[C@H]1CN(Cc1coc(-c3ccccc3)n1)C2,-19%,2.43
Cc1nn(C)cc1C(C)NC(=O)NC[C@@H]1C[C@@H](C(C)C)c2ccccc21 (stereo not given in full),-11%,1.75
